# Reference: PubChem BioAssay AID588855 (National Center for Advancing Translational Sciences (NCATS), 2011)
# Among all 410,000 compounds or so, about 5,000 (1.2%) were called active. This list was built around the results that the source calls inconclusive (neither active nor inactive); the mix of calls is not that of the screen. The call rests on the fitted dose curve; in most records, active means well fitted inhibition curve with a large enough effect; inconclusive means small, poorly fitted or top-dose-only effect; inactive means no such curve, though single readings can be large or run the other way. Potencies beside an inconclusive call are fits to weak or partial responses and may not hold up.
# Experiment: qHTS for Inhibitors of TGF-b; further: nearly all actives have a fitted effect of over 65% in size
# Conditions: HepG2 CAGA-GFP TGF-b/SMAD3 reporter, GFP fluorescence, 18 h, TGF-beta stimulated, 500 pg/mL final; series mostly up to 46.1 µM
# Outline: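 Per well, imaged GFP fluorescence of HEPG2 CAGA-GFP cells gives the signal; cells get compound, then TGF-beta (500 pg/mL final), 18 h at 37 degrees C; %Activity versus -TGF-beta and +DMSO controls.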
# Potency means the concentration at half of the fitted maximal effect; tags describe the fitted curve by direction and shape.
row,SMILES,Potency
1,CC(C)N(C(=O)[C@H]1C[C@H](CC(=O)NC(C)(C)C)C(=O)N2CCc3c([nH]c4cc(-c5ccco5)ccc34)[C@]12C)C(C)C,"inconclusive: 22.4 µM [inhibitor, single point]"
2,Cc1cccc(-c2nc3c4ccccc4nc(N4CCN(c5cccc(Cl)c5)CC4)n3n2)c1,"inconclusive: 0.794 µM [inhibitor, full curve, poor fit]"
3,O=C(CCN1CCN(S(=O)(=O)c2ccc(Cl)cc2)CC1)Nc1ccc(F)cc1,"inconclusive: 35.5 µM [inhibitor, single point]"
4,CCCCN1C[C@H](Cc2ccccc2)[C@@H](CC(=O)Nc2ccccc2)C1=O,inactive
5,CCC(=O)N(Cc1cc2cc(OC)ccc2[nH]c1=O)c1ccccc1OC,inactive
6,COc1ccc(Cc2nc3ccccc3n2Cc2ccccc2C)cc1,"inconclusive: 35.5 µM [inhibitor, single point]"
7,CC1CCCCC12NC(=O)N(CC(=O)OCc1c(F)cccc1Cl)C2=O (configuration not stated),"inconclusive: 35.5 µM [inhibitor, partial curve, poor fit]"
8,O=C(COC(=O)c1ccc([N+](=O)[O-])o1)NCCCc1ccccc1,"inconclusive: 22.4 µM [inhibitor, single point]"
9,COc1ccccc1OCCNC(=O)/C=C/c1ccc([N+](=O)[O-])cc1,inactive
10,COc1cccc(C(=O)N2CCN(C(=O)C3CCCO3)CC2)c1 (configuration not stated),inactive
11,N#Cc1nc(Nc2cccc(Cl)c2)c2ncn(C3CCCC3)c2n1,"inconclusive: 7.94 µM [inhibitor, partial curve, poor fit]"
12,C#CCOCCOCCOCCNc1nc(N2CCN(C(=O)CCCCCCCCCCNC(=O)[C@H]([C@@H](C)CC)n3cc(CCCCN=C(N)N)nn3)CC2)nc(N2CCN(C(=O)CCCCCCCCCCNC(=O)[C@H](CCCCN)n3cc(C)nn3)CC2)n1,active: 15.8 µM
13,CCOC(=O)C1=C(CNCc2ccccc2Cl)NC(=O)NC1c1ccc2c(c1)OCO2 (configuration not stated),"inconclusive: 14.1 µM [inhibitor, single point]"
14,N#Cc1c(-c2ccccc2)nc(N2CCOCC2)[nH]c1=O,"inconclusive: 3.16 µM [inhibitor, single point]"
15,CCOC(=O)/C(C#N)=N/Nc1ccc(S(=O)(=O)N2CCc3ccccc32)cc1,active: 11.2 µM
16,CC(NCC(=O)Nc1cc(S(=O)(=O)N2CCCCCC2)ccc1Cl)c1ccccc1 (configuration not stated),"inconclusive: 12.6 µM [inhibitor, partial curve, poor fit]"
17,Oc1cccc2c(NC(=S)Nc3ccc(OC(F)F)cc3)cccc12,inactive
18,COc1ccccc1-c1cccc(-c2nc(C(=O)N3CCCCC3)cc3c2[C@@H](CCO)N(S(=O)C(C)(C)C)C3)c1 (some centres not stated),"inconclusive: 11.2 µM [inhibitor, single point]"
19,CCn1nc(C)cc1C(=O)N1CCCC(C(=O)c2ccc3ccccc3c2)C1 (configuration not stated),"inconclusive: 12.6 µM [inhibitor, single point]"
20,Cc1nn(-c2ccccc2)c2c1P(=O)(O)/C(=C1\N(C)c3ccccc3C1(C)C)C=N2,inactive
21,C=CCOc1ccc(CN(C)CC(O)COc2cccc3ccccc23)cc1 (configuration not stated),active: 17.8 µM

row,SMILES,Potency
1,c1csc(CNc2ncnc3sccc23)c1,inactive
2,c1ccc(Nc2nc3ccccc3[nH]2)nc1,"inconclusive: 20 µM [inhibitor, single point]"
3,Cn1c(=O)cc(SCC(=O)NCc2ccc(F)cc2)c2cc(Cl)ccc21,inactive
4,OC(COc1ccccc1)CSc1ncn[nH]1 (configuration not stated),"inconclusive: 3.98 µM [inhibitor, full curve, poor fit]"
5,Cc1cc(C)cc(OCC(=O)Nc2nc3ccc([N+](=O)[O-])cc3s2)c1,"inconclusive: 6.31 µM [inhibitor, single point]"
6,COc1ccc(CNC(=O)c2ccc(CS(=O)(=O)c3ccc(C)cc3)o2)cc1,"inconclusive: 35.5 µM [inhibitor, single point]"
7,COc1ccc(Cc2nnc(NC(=O)Nc3cccc(OC)c3)s2)cc1,inactive
8,CC(=O)Nc1ccc(/C=N/NS(=O)(=O)c2cc(C)ccc2C)cc1,inactive
9,Clc1ccc2nnnc(-c3ccccc3)c2c1,"inconclusive: 35.5 µM [inhibitor, single point]"
10,CCOC(=O)c1c(C)[nH]c(C)c1S(=O)(=O)N1CCC(C(=O)Nc2ccccc2CC)CC1,"inconclusive: 0.282 µM [inhibitor, full curve, poor fit]"
11,CCCc1nc(SCC(=O)c2ccc(F)cc2)c2ccccc2n1,"inconclusive: 11.2 µM [inhibitor, single point]"
12,CC(C)Oc1nc(-c2ccccc2Cl)nc2ccccc12,"inconclusive: 3.16 µM [inhibitor, full curve, poor fit]"
13,COc1ccccc1C(=O)NC(=S)NNC(=O)c1sc2ccccc2c1Cl,"inconclusive: 6.31 µM [inhibitor, single point]"
14,CCn1c2ccccc2c2cc(NC(=O)c3ccco3)ccc21,inactive
15,O=C(CCSc1ccccc1)Nc1nc2c(s1)COc1ccccc1-2,"inconclusive: 15.8 µM [inhibitor, partial curve, poor fit]"
16,COCCN(C(=O)COC(=O)C(c1ccccc1)c1ccccc1)c1c(N)n(Cc2ccccc2)c(=O)[nH]c1=O,"inconclusive: 35.5 µM [inhibitor, single point]"
17,COc1ccc(-c2cn3c(n2)sc2cc(C(=O)Nc4ccc(C)c(Cl)c4)ccc23)cc1,inactive
18,Cc1cc(C)c(C)c(S(=O)(=O)N2CCN(c3ncnc4ccccc34)CC2)c1C,"inconclusive: 2.24 µM [inhibitor, partial curve, poor fit]"
19,COc1ccc(C2/C=C\CN(C(=O)Nc3ccccc3-c3ccccc3)CC(=O)N2Cc2ccc(F)cc2)cc1 (configuration not stated),"inconclusive: 35.5 µM [inhibitor, single point]"
20,Cc1ccc(S(=O)(=O)c2c(CO)c(-c3ccccc3)nn2C)cc1,"inconclusive: 35.5 µM [inhibitor, single point]"
21,O=C(CSc1nc2ccccc2s1)Nc1cc(S(=O)(=O)N2CCOCC2)ccc1O,inactive
